Measurements taken from patent US11434289B2, “Anti-GPR20 antibody and anti-GPR20 antibody-drug conjugate” (DAIICHI SANKYO COMPANY, LIMITED, priority 2017, dated 2022).

B1: h046-H8/L1: humanized h046-H8 type heavy chain and humanized h046-L1 type light chain (antibody)
heavy: QVQLQQSGAELAKPGSSVKISCKASGYTFTSYYISWIKQTTGQGLKYIGFINPGSGHTNYNEKFKGKATLTVDKSSSTANMQLSSLTPDDSAIYYCARGAGGFLRIITKFDYWGQGVMVTVSSASTKGPSVFPLAPSSKSTSGGTAALGCLVKDYFPEPVTVSWNSGALTSGVHTFPAVLQSSGLYSLSSVVTVPSSSLGTQTYICNVNHKPSNTKVDKRV[letters of human IgG1 Fc omitted]
light: DIQMTQSPSSLSASVGDRVTITCRASKSVSTYIHWYQQKPGKAPKLLIYSASNLESGVPSRFSGSGSGTDFTLTISSLQPEDFATYYCQQINELPYTFGQGTKVEIKRTVAAPSVFIFPPSDEQLKSGTASVVCLLNNFYPREAKVQWKVDNALQSGNSQESVTEQDSKDSTYSLSSTLTLSKADYEKHKVYACEVTHQGLSSPVTKSFNRGEC
B2: h046-H10/L1: humanized h046-H10 type heavy chain and humanized h046-L1 type light chain (antibody)
heavy: B1 heavy with I20V
light: B1 light
B3: antibody-drug conjugate (10): antibody-drug conjugate produced from h046-H8/L1; n 7.9 by common procedure F (conjugate)
heavy: B1 heavy
light: B1 light
B4: antibody-drug conjugate (11): antibody-drug conjugate produced from h046-H10/L1; n 7.9 by common procedure F (conjugate)
heavy: B1 heavy with I20V
light: B1 light

Columns and labels:
human GPR20 = biological target: T1, human GPR20 (Homo sapiens, UniProt Q99678); experiment: Internalization activity of humanized anti-GPR20 antibodies with Hum-ZAP in HEK293 cells stably expressing GPR20-EGFP; format: cell-based; conditions: antibody 0.015 to 1.27 μg/mL, Hum-ZAP 1 μg/mL, 4 days
T1 construct: expressed in transfected cells; host or cells: 293T cells, transient, Lipofectamine 2000
T1 sequence (Q99678 1-358): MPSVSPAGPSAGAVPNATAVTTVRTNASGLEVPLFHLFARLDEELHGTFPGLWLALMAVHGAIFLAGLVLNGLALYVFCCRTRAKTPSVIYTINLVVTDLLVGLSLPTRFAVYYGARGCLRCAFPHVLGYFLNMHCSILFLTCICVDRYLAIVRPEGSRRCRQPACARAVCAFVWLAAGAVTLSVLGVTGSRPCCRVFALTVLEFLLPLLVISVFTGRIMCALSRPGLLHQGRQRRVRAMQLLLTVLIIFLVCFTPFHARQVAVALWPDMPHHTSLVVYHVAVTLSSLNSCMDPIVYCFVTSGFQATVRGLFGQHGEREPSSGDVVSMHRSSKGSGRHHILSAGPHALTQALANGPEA

GIST-T1/GPR20 cells = experiment: Antitumor effect in subcutaneously GIST-T1/GPR20 cell-transplanted nude mouse models; format: in vivo, BALB/c nude mice; conditions: 1 mg/kg intravenously on Day 17; FIG. 31

Molecule | cell proliferation-suppressive effect by antibody internalization (human GPR20) | tumor volume (GIST-T1/GPR20 cells)
B1 | exhibited a cell proliferation-suppressive effect by antibody internalization | 
B2 | exhibited a cell proliferation-suppressive effect by antibody internalization | 
B3 |  | remarkably decreased tumor volume
B4 |  | remarkably decreased tumor volume

Changes are numbered by the printed parent chain.
